Data as given in the supplement of paper PMC3334620.
Whole data set: some 33,000 sequences, median “E-score (-0.5 to 0.5)” near -0.017, cut for the highest 2% near 0.3. This is one part of the list.

Target: T1, Sut1 (UniProt P53032)
T1 sequence: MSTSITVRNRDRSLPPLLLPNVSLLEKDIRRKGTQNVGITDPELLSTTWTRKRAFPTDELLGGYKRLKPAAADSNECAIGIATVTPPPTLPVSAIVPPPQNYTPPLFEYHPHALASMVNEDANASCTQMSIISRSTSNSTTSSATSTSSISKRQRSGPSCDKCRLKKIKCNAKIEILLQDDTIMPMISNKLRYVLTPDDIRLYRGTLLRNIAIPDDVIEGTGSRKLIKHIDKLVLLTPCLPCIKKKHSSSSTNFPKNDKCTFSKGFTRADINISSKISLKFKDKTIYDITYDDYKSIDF
Test: PBM E-score (8-mer binding enrichment) (E-score (-0.5 to 0.5)); higher = stronger / more preferred TF binding; most listed sequences are background and not binding sites
Conditions: protein concentration: 200 nM; construct: GST-full length
How it was run: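 Bound GST-tagged yeast transcription factors, applied at about 100-200 nM to double-stranded universal all-10-mer Agilent arrays, were detected with fluorescent anti-GST. Scans were normalised with masliner. A modified Wilcoxon-Mann-Whitney statistic, the E-score, was assigned to each ungapped eight-base word pooled with its reverse complement by the Universal PBM Analysis Suite.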

Sequence | PBM E-score
GTGTGGAA | 0.09
AACAGCCA | 0.129
ACCTCGTG | -0.177
CTCTAATA | 0.0688
ACTTCGCC | -0.0213
ATGTCGTC | -0.0778
CCACGATA | 0.0317
CCTTTACA | 0.0265
GGGCCTAA | -0.0946
AAGGATAC | -0.0233
CGAGTTCA | -0.149
ACGACCGG | -0.0759
AAACTGAA | 0.171
ATTATGTG | 0.187
AAGGGTTC | 0.0271
ACTTATTG | 0.122
CTCGCCTA | -0.0978
CACTGTCA | -0.0844
CGCGAGAA | -0.207
CAGGAAAA | -0.0187
TACCTAGA | 0.0225
AAACAAAA | 0.197

Sequence | PBM E-score
CCCGCAAA | 0.1
ACAAAAAA | 0.264
AACTAGGG | -0.0975
AACCTAAG | -0.0511
CAGAAGGA | -0.354
GTCCATGA | -0.141
GCGCGACC | -0.0834
AACAGATG | -0.113
TTCTTAAA | 0.0894
CAGTTAAA | 0.182
AGCCCTCG | -0.207
CCGTATGC | -0.0603
CATGTGAG | -0.253
GCGATAAC | 0.12
GGAAATCC | 0.0204
GACGACGA | 0.052
AAAAACCA | 0.231
CGAACTAA | 0.182
ACGGACTG | 0.22
CGCCTGCA | -0.238
AAAGACAT | -0.0344
TACAAATA | 0.303

Sequence | PBM E-score
ATACGTCG | -0.0997
CGACCATA | 0.00102
AGCCCGCT | -0.241
AGACTGAG | -0.128
GGTATTAA | 0.0491
AGGGGCAT | -0.318
AAAGTTAC | 0.107
CATTTGTA | 0.179
CGGACCAC | 0.165
AAAGGATC | 0.0741
CGTCATCC | -0.178
CCTGATCA | -0.239
ACGGTCAA | 0.0456
CCGATTCG | 0.163
CCTGGGAA | -0.229
ATAACCCG | -0.0563
AACGATAA | 0.135
CATTACGA | -0.0227
GCACAAAA | 0.224
GACTGTAC | -0.0623
CTCGCAAA | -0.171
GTCCCTAA | 0.0506

Sequence | PBM E-score
ACCCTCTC | -0.124
CACCATCG | -0.434
AGGACGTC | -0.0423
AGCAGAGC | -0.288
AGCATCTC | 0.131
CCTCTAAA | -0.248
ATAAAGGG | 0.0706
GCCTTGCA | -0.23
ACAATGCC | 0.0523
AATCACCT | 0.052
AGAGCGGA | 0.318
GTTTAGGA | -0.07
ATTGGCGA | -0.213
CTTGGATA | 0.126
ACCAGTAG | -0.0953
AAGGGTCT | -0.114
AGTGTGAG | -0.023
CTGTACGA | 0.124
CGCCACCG | -0.193
CAAATCCA | 0.0214
